Laboratory results published in patent publication US20260258106A1 (BEIJING NEOX BIOTECH, published 2026).

B1: m109-Fc (Fc fusion)
chain: QGQDRHMIRMRQLIKWVDQLKNYVNDLVPEFLPAPEDVETNCEWSAFSCFQKAQLKSANTGNNERIINVLIKKLKFKPESTNAGRRQKHRLTCPSCDSYEKKPPKEFLERFKSLLQKMIHQHLSSRTHGSEDS[human IgG1 Fc with changes not shown]
B2: m110-Fc (Fc fusion)
chain: QGQDRHMIRMRQLIRWVDQLKNYVNDLVPEFLPAPEDVETNCEWSAFSCFQKAQLKSANTGNNERIINVLIKKLKFKPESTNAGRRQKHRLTCPSCDSYEKKPPKEFLERFKSLLQKMIHQHLSSRTHGSEDS[human IgG1 Fc with changes not shown]
B3: m111-Fc (Fc fusion)
chain: QGQDRHMIRMRQLIRWVDQLKNYVNDLVPEFLPAPEDVETNCEWSAFSCFQKAQLKSANTGNNERIINVLIKYLKRKPEGGGSEGGGSLTCPSCDSYEKKPPKEFLERFKSLLQKMIHQHLSSRTHGSEDS[human IgG1 Fc with changes not shown]

Biological target: IL-21R expressed on the surface of HuT78 cells (UniProt Q9HBE5 20-538, limits assumed)
Experiment: cell-based or functional assay

Chain of UniProt Q9HBE5 (Q9HBE5 20-538 limits assumed): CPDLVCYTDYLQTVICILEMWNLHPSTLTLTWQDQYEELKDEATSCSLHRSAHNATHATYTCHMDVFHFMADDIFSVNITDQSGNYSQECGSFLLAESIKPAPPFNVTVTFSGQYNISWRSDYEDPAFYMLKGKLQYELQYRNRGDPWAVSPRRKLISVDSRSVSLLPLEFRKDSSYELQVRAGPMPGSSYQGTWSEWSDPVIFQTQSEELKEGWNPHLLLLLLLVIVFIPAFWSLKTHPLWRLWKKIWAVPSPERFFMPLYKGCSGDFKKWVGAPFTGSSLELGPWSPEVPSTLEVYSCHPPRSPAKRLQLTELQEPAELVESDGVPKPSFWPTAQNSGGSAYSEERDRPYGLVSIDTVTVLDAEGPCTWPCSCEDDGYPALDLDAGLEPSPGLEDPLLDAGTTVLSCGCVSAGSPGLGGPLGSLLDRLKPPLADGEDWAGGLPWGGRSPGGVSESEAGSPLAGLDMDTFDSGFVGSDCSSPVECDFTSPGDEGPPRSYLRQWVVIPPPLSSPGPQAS

Row | pSTAT3 activation(EC50, nM) [nM] | Binder
1 | 792 | B1
2 | 840 | B2
3 | 220 | B3
